Assay results from patent US20260176310A1 (NAVIGO PROTEINS, published 2026).

T1: mFAP-Fc (mouse, UniProt P97321 26-761)
T1 construct: extracellular domain; Made in house in ExpiCHO cells; also called mFAP-Fc-His; mouse FAP; not shown: IgG1-Fc
T1 sequence (looked up): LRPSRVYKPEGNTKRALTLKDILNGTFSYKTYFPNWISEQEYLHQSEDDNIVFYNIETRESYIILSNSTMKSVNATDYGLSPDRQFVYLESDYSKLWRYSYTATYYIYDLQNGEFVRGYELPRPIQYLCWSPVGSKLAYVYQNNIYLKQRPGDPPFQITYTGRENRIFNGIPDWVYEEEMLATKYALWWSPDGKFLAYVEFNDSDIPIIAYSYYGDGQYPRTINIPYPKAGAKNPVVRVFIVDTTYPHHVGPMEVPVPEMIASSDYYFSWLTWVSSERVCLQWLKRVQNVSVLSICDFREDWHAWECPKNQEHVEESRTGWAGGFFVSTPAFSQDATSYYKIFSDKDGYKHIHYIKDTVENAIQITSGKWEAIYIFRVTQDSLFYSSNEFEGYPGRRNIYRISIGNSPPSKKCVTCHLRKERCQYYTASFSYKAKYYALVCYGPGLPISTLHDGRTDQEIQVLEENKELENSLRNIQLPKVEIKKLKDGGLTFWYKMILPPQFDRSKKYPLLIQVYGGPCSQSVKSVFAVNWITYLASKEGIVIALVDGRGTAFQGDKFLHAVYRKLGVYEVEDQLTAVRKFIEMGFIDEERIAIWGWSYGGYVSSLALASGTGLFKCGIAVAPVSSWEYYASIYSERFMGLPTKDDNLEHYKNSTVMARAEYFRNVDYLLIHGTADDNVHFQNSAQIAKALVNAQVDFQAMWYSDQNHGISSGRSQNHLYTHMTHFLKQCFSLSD


Key:
[1] = target: T2, mCD26 expressed on HEK293-mCD26 cells (mouse, UniProt P28843 1-760); assay: flow cytometry on HEK293-mCD26 cells
T2 construct: whole, on cells
T2 sequence (P28843 whole entry): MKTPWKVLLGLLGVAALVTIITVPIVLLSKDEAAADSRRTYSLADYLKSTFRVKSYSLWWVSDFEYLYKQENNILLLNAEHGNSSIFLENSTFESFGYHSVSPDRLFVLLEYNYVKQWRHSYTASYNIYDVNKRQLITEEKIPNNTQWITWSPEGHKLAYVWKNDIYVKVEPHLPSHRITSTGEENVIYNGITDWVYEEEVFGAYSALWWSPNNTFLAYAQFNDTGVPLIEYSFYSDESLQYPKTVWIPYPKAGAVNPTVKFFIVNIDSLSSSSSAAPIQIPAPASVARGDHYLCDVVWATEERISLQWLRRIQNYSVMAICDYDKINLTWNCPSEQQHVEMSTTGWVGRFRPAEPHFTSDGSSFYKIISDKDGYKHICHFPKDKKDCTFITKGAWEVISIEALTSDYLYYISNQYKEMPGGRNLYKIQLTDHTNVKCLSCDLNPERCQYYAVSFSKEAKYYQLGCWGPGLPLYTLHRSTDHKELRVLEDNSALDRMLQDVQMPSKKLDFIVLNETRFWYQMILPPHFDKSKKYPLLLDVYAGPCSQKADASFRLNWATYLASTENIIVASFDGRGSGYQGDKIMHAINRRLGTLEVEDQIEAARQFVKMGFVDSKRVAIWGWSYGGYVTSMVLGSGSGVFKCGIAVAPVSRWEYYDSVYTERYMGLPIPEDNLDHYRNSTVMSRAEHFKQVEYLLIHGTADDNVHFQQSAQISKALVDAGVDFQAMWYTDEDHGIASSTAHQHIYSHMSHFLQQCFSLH

[2] = target: T3, hCD26 expressed on HEK293-hCD26 cells (human, UniProt P27487 1-766); assay: flow cytometry on HEK293-hCD26 cells
T3 construct: whole, on cells
T3 sequence (P27487 whole entry): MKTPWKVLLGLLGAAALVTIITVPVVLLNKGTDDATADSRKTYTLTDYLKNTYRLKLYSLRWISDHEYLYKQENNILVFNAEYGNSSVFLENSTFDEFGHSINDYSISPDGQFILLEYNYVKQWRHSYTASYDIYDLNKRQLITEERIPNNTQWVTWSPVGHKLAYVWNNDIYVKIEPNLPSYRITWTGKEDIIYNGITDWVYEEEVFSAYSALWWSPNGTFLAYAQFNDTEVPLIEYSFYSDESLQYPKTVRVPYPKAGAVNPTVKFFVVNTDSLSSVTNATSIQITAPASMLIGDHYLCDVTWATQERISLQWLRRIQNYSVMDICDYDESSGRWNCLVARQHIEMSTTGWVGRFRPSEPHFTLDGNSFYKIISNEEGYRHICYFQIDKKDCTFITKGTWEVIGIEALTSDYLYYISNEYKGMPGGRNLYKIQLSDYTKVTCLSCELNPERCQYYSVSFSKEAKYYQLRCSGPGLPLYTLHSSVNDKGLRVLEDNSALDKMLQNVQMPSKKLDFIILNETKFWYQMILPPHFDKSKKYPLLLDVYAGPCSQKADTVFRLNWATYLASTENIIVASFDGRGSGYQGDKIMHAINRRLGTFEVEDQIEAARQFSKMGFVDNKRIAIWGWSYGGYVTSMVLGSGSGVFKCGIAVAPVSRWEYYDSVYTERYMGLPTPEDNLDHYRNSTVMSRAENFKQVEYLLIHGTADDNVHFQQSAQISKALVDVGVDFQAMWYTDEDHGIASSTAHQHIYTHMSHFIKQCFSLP

[3] = target: T1, mFAP-Fc; assay: SPR, Fc-tagged target captured on protein A
Procedure: Recombinant protein A was immobilized on a High Capacity Amine sensor chip (Bruker) after NHS/EDC activation resulting in approx. 2000 RU with a Sierra SPR-32 system (Bruker). The chip was equilibrated with SPR running buffer (PBS 0.05%, Tween pH 7.3). Injection of ethanolamine after ligand immobilization was used to block unreacted NHS groups. The Fc-tagged FAP and CD26 target molecules were injected with 60 nM followed by the injection of FAP binding proteins. Upon binding, target analyte was accumulated on the surface increasing the refractive index. This change in the refractive index was measured in real time and plotted as response or resonance units versus time. The FAP binding proteins were applied to the chip in serial dilutions with a flow rate of 30 μl/min. The association was performed for 120 seconds and the dissociation for 180 seconds. After each run, the chip surface was regenerated with 30 μl regeneration buffer (10 mM glycine pH 2.0) and equilibrated with running buffer. Binding studies were carried out by the use of the Sierra SPR-32 system (Bruker); data evaluation was operated via the Sierra Analyser software, provided by the manufacturer, by the use of the Langmuir 1:1 model (RI=0). Evaluated dissociation constants (KD) were standardized against the immobilized protein and indicated.

Row | Kd [3] [nM] | Binder | binding result [1] | binding result [2]
1 |  | Affilin®-220257 (designed binder, Ubiquitin mutein) MQIFVWTITGKPITLEVEPSDTIENVKAKIQDKEGIPPDQQRLIWAGKQLEDGRTLSDYNIRSWPNLHLVLRLRAGMQIVVHTATGKTITLEVEPSDTIGHVKAKIQDTEGIPPDQQRLIWAGKQLEDGRTLSDYNIEDFPPLHLVLRLRAA | no binding (tested: 1 µM, 100 nM, 10 nM, or 1 nM) | no binding (tested: 1 µM, 100 nM, 10 nM, or 1 nM)
2 | 3.1 | Affilin®-220164 (designed binder, Ubiquitin mutein) MQIFVWTDDWKRITLEVEPSDTIENVKAKIQDKEGIPPDQQVLAWRGKQLEDGRTLSDYNIMVWPNLWLRLRAA | no binding (tested: 1 µM, 100 nM, 10 nM, or 1 nM) | no binding (tested: 1 µM, 100 nM, 10 nM, or 1 nM)
3 | 90 | Affilin®-217990 (designed binder, Ubiquitin mutein) MQIFVKTLTPEWHIIGKTITLEVEPSDTIENVKAKIQDKEGIPPDQQNLAWAGKQLEDGRTLSDYNIQGGSMLMLKLHLRAA | no binding (tested: 1 µM, 100 nM, 10 nM, or 1 nM) | no binding (tested: 1 µM, 100 nM, 10 nM, or 1 nM)
4 |  | Affilin®-217863 (designed binder, Ubiquitin mutein) MQIFVWTEMHKRITLEVEPSDTIENVKAKIQDKEGIPPDQQHLTWKGKQLEDGRTLSDYNISEWPNLFLRLNLRAA | no binding (tested: 1 µM, 100 nM, 10 nM, or 1 nM) | no binding (tested: 1 µM, 100 nM, 10 nM, or 1 nM)
